The whole screen tested about 310,000 compounds, of which about 2,200 (0.71%) showed an effect of 50% or more. Effects have a minus sign here. Some of the results follow.
Molecular target: human ether-à-go-go-related gene (hERG) potassium channel (human, UniProt Q12809)
Test: primary screen, population patch clamp on CHO cells stably expressing hERG

human ether-à-go-go-related gene (hERG) potassium channel, sequence (Q12809 whole entry, looked up): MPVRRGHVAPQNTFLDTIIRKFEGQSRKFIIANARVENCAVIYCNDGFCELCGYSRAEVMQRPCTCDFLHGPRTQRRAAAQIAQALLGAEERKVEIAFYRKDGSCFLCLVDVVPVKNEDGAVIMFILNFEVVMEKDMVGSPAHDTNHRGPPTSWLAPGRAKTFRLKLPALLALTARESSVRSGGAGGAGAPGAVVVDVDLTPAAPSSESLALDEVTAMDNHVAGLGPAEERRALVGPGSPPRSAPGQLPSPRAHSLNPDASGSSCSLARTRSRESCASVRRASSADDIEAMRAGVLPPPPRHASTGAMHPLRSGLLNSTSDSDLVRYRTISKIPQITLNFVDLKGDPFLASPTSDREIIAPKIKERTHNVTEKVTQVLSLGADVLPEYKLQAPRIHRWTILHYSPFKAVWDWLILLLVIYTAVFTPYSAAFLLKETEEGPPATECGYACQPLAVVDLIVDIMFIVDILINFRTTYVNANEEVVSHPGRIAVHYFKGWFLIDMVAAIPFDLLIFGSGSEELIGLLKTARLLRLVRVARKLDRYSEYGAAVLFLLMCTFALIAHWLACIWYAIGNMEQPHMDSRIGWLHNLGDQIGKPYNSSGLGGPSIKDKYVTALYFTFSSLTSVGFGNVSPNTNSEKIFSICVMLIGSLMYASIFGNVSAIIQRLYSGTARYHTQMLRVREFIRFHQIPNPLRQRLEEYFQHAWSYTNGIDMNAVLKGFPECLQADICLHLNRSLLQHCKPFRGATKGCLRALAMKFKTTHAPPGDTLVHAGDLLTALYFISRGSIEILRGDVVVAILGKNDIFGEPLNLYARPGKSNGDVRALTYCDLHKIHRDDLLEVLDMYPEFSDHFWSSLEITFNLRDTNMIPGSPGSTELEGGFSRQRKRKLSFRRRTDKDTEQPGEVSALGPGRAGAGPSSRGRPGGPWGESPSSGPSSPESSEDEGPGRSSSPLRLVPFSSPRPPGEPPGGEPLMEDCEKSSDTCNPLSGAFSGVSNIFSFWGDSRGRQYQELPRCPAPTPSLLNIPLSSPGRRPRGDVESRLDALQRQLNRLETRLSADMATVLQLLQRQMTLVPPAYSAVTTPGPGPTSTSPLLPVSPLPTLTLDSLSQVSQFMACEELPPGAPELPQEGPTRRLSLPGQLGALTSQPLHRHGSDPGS

SMILES	hERG current change (%, negative = inhibition) at 1uM [%]
Cn1c(=O)oc2cc(S(=O)(=O)N3CCC(C(=O)NCc4ccccc4Cl)CC3)ccc21	-0.101
COc1ccc(-c2ccc(NCCC3=CCCCC3)nn2)cc1OC	20.6
O=C(Oc1ccccc1[N+](=O)[O-])c1cccnc1	4.97
O=C(NCCS(=O)(=O)N1CCN(c2ccccc2)CC1)c1ccco1	3.08
COc1ccccc1N1CCN(c2nc3c(C)cccn3c(=O)c2C=O)CC1	-9.61
Cc1ccc(S(=O)(=O)CC(=O)Nc2nccs2)cc1	17
Cn1c(CCC(=O)OCC(=O)NCc2ccccc2Cl)nc(=O)c2ccccc21	13.4
COc1cccc(/C=N/n2c(N)nc3ccccc32)c1OC	11.8
COCC1CCN(C(=O)C2CCC(=O)N(Cc3ccc(Cl)cc3)C2)CC1 (centres unmarked)	13.5
COc1ccc(NC(=O)C(CC(C)C)NC(=O)c2ccccc2C)cn1 (centres unmarked)	1.14
CC1(C)NC(=O)N(CCCCOc2cccc(C(F)(F)F)c2)C1=O	3.5
CC(=O)Oc1ccc(C(=O)Nc2nccs2)cc1	8.57
O=C(N/N=C/c1ccc[nH]1)c1ccc(O)cc1	18.9
Cc1ccc(C)n1-c1cccc(N)c1	-12.2
Cc1cc(=O)oc2cc(NC(=O)CN3C(=O)NC(C)(c4ccccc4)C3=O)ccc12 (centres unmarked)	14.6
CC(C)(C)c1ccc(NC(=O)CN2C(=O)NC(C)(C3CC3)C2=O)cc1 (centres unmarked)	-12.6
Cc1cccc(C)c1N1C(=O)[C@@H]2C(c3ccccc3Cl)=NO[C@@H]2C1=O	10.1
COc1ccc(-n2nc(C(=O)NCC(=O)Nc3cc(C)ccc3OC)c3ccccc3c2=O)c(OC)c1	9.36
O=C(N=C1SC2CS(=O)(=O)CC2N1c1ccc(F)c(Cl)c1)C1CC1 (centres unmarked)	15.1
CCOC(=O)CN1C(=O)c2ccccc2Sc2ncccc21	10.1
CN1CCCC(OC(=O)c2cccc(Cl)c2)C1.Cl (centres unmarked)	6.78
COc1ccc(S(=O)(=O)N(CCCN2CCOCC2)Cc2cccc(OC)c2OC)cc1	10.4

SMILES	hERG current change (%, negative = inhibition) at 1uM [%]
CCC(O)(CC)C(=O)N=Nc1c(O)[nH]c2ccccc12	14.2
CC(=O)Nc1cccc(C(=O)OC(C)C(=O)NCc2ccc3c(c2)OCO3)c1 (centres unmarked)	11.2
COc1ccc(CNC(=O)Cn2cccc2C(=O)c2ccccc2)cc1	2.79
CCOc1cc(C2C(C#N)=C(N)OC(C)=C2C(C)=O)c(Br)c(Br)c1OC(C)C (centres unmarked)	14.6
CC(NC(=O)CCc1c[nH]c2ccccc12)c1ccccc1 (centres unmarked)	23.2
COC(=O)[C@@H](NC(=O)Nc1ccc(C(C)=O)cc1)C(C)C	8.02
COc1nc(Nc2nc3ccccc3c(=O)[nH]2)nc2ccc(C)cc12	-0.611
COc1cccc(OCc2cc(C(=O)N(C)Cc3nc(C)cs3)no2)c1	7.39
CCC(C)c1ccc(NC(=O)C/C(C)=N/NC(=O)c2cnccn2)cc1 (centres unmarked)	-0.845
CC(=O)c1cccc(S(=O)(=O)NCC2CCCCC2)c1	-4.73
O=C(CSc1ncn[nH]1)Nc1ccccc1-c1ccccc1	12.3
S=C(NC1CCCCC1)NN1CCOCC1	6.84
CC1(C)Cc2ccccc2-c2nc(NN)[nH]c(=O)c21	18.1
COc1cc(CN2CCN(C(=O)CC(C)C)CC2)c([N+](=O)[O-])cc1OC	11.2
Cc1cc(=O)[nH]c(SCC(=O)Nc2ccc(Br)cc2)n1	8.23
CCCCCCCCCCCCN1[C@@H](CC(C)=O)c2cc(F)ccc2S1(=O)=O	9.12
CCC(=O)N(Cc1cc(=O)[nH]c2ccccc12)c1cccc(C)c1	5.99
O=S(=O)(c1ccc(N2CCN(c3ccc(F)cc3)CC2)cc1)N1CCCC1	6.27
CC(C)c1cc(=O)n2[nH]c(SCc3ccc(Cl)cc3)nc2n1	27.8
COc1cc(O)oc1C=Nc1ccc(Cl)cc1	10.9
O=S(=O)(NCCN1CCOCC1)c1ccc(Oc2ccccc2Cl)cc1	5.88
CCCCCn1c(CN2CCN(Cc3ccccc3)CC2)nc2c1c(=O)[nH]c(=O)n2C	-72.5

From publication PMC4336329 (PLoS ONE, 2015)
